Experimental data from PubChem BioAssay AID1963576 (National Center for Advancing Translational Sciences (NCATS), 2024).
Screen size: about 46,000 compounds; about 60 (0.1%) were called active. Another 3% or so got no clear call; they are omitted. Calls follow the shape of the dose curve; as a rule, active = well fitted inhibition curve with a large enough effect; inconclusive = small, poorly fitted or top-dose-only effect; inactive = no such curve, though single readings can be large or run the other way. Some of the results follow.

experiment: Primary qHTS assay for Inhibitors of ovarian cancer metastasis using an organotypic tumor microenvironment (TME) model.; also: nearly all actives have a fitted effect of over 65% in size;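 as to activity change, negative = inhibition: plate controls were DMSO wells for no effect and tomatine positive control wells for full effect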; details: SKOV3ip1-GFP adhesion/invasion on 3D omental model, fluorescence; series mostly up to 45.8 µM; activity change, negative = inhibition: at the top concentration
Summary of the method: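 qHTS, 4-pt dose (0.36-46 umol/L); SKOV3ip1-GFP, 1,200 cells/well, no FBS; primary omental fibroblast/mesothelial co-culture 48 h pre-grown; 2 h RT + 16 h 37 C; PBS wash, 4% PFA; GFP count 488/509 nm.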

Activity change, negative = inhibition, inactive:
O=C(NCCc1ccc(F)cc1)C(=O)NCC(c1cccs1)S(=O)(=O)c1ccc(F)cc1 (stereo unspecified) -1.46%
Cc1ccc2sc(N3CCN(C(=O)CCS(=O)(=O)c4ccc(Cl)cc4)CC3)nc2c1C -0.937%
Cc1ccc(C)c(S(=O)(=O)c2cn(C)c3cc(N4CCCCC4C)c(F)cc3c2=O)c1 (stereo unspecified) 8.74%
CN1CCc2c(sc3c2C(=O)NC(c2ccc(OC(=O)c4ccccc4)cc2)N3)C1 (stereo unspecified) -2.73%
COc1ccc(OC)c(NCc2cccn2-c2nnc(N3CCCCC3)s2)c1 -21.4%
OCCN1CCN(CCCN2c3ccccc3Sc3ccc(C(F)(F)F)cc32)CC1 -38%
COc1ccc(CNC(=O)Cn2ncc3c4ccccc4n(Cc4cccc(Cl)c4)c3c2=O)cc1 1.19%
COCCCn1c(=O)c2sccc2n2c(CCCC(=O)Nc3cc(C)cc(C)c3)nnc12 12.4%
COc1ccccc1OCCCSc1nc(-c2ccc(C(C)(C)C)cc2)nc2cc(=O)[nH]n12 -2.82%
Cc1ccc(NC(=O)C(Cc2ccccc2)n2cccc2)cc1 (stereo unspecified) 4.07%
Cn1c(=O)c2c(-c3ccc(Cl)cc3)n(Cc3ccc(Cl)cc3)cc2n(C)c1=O 7.77%
Cc1cccc(-c2nc3c4ccccc4nc(N4CCN(c5ccccc5F)CC4)n3n2)c1 4.17%
Cc1ccc(CNC(=O)NCc2noc3ccc(C)cc23)cc1 5.7%
COc1ccc(C(=O)NCCn2cc(SCC(=O)Nc3ccc(C)cc3)c3ccccc32)cc1 3%
COc1ccc(C)cc1NC(=O)c1ccc2c(=O)n3c(nc2c1)CCCCC3 -1.96%
COc1ccc(-c2cc(C)no2)cc1S(=O)(=O)Nc1c(C)cc(C)cc1C -16.4%
Cc1ccc(Cn2c(CNS(=O)(=O)c3cccc([N+](=O)[O-])c3)nc3cccnc32)cc1 4.69%
COc1ccc(OC)c(CNC(=O)c2ccc(C)c(NC(=O)c3nsc4ccccc34)c2)c1 4.88%
CCCCNC(=O)C1CCN(S(=O)(=O)CCC)CC1 -16.7%
COc1ccc(-c2c(C)c3ccc(O)c(CN4CCOCC4)c3oc2=O)cc1 4.94%
COC(=O)c1cc2sc(Cl)cc2n1Cc1c(C)cc(C)cc1C 9.27%
CCOC(=O)C1CCN(C(c2ccc(SC)cc2)c2c(O)cc(C)n(Cc3ccco3)c2=O)CC1 (stereo unspecified) 1.17%
COc1cc(C2NC(=O)c3c(sc4c3CCN(C)C4)N2)cc(Br)c1OC(=O)c1ccc(C)cc1 (stereo unspecified) -2.27%
COCCNC(=O)Nc1cc(C(=O)NCc2ccc(C(C)C)cc2)ccc1N1CCCC1 11.7%
COc1ccccc1N1CCN(c2ncnc3onc(-c4ccc(F)cc4)c23)CC1 -5.97%
Cc1cccc(NC(=O)CCS(=O)(=O)c2cccc3nsnc23)c1C 4.59%
COc1cccc(C(=O)NCCc2csc(-c3ccc(Cl)cc3)n2)c1 -7.24%
CCc1ccc(CNC(=O)C(C)n2ccc3cc(S(=O)(=O)N4CCCCCC4)ccc32)cc1 (stereo unspecified) 2.75%
COC(=O)c1c(NC(=O)CCCOc2ccc(C(C)(C)C)cc2)sc2c1C(C(=O)OC)CC2 (stereo unspecified) 3.14%
CC1CN(C(=O)N2CCC(C(=O)NCc3cccs3)CC2)c2cc(Cl)ccc2O1 (stereo unspecified) 0.176%
O=C(NCc1cccc(F)c1)C1CCCN(C(=O)N2CCOc3ccccc32)C1 (stereo unspecified) -8.55%
CCOC(=O)CSC1=Nc2ccccc2C2=NC(CCC(=O)NCc3ccc(F)cc3)C(=O)N12 (stereo unspecified) -6.61%
COc1ccc(OCC(=O)N2CCC(c3nc4ccccc4s3)CC2)cc1 8.15%
CCCCOc1ccc(C(=O)Nc2ccc3oc(-c4cccnc4)nc3c2)cc1 -5.17%
CCOc1cc(C(=O)NCc2ccc3c(c2)CCN3C(=O)c2ccc(F)cc2)cc(OCC)c1OCC -14.7%
O=C(NC1CCCC1)c1ccc(CSc2nc3ccncc3n2Cc2cccc(F)c2)cc1 -25.1%
COc1ccc(CNC(=O)C(C)Sc2nc(-c3ccccc3)cc(C(F)(F)F)n2)cc1 (stereo unspecified) 1.77%
CCc1ccccc1NC(=O)C1CCN(S(=O)(=O)c2ccccc2)CC1 6.22%
O=C(O)CCCc1c[nH]c2ccccc12 -16.2%
Cc1c2cnn(CC(=O)NCC(C)c3ccccc3)c(=O)c2c(C)n1Cc1cccc(Cl)c1 (stereo unspecified) 4.83%
CC1Cc2cc(S(=O)(=O)NCCc3ccc(Cl)cc3)ccc2N1C(=O)C1CCC1 (stereo unspecified) 0.939%
CCn1ccc2cc(S(=O)(=O)N3CCC(C(=O)NCCc4ccccc4Cl)CC3)ccc21 -0.329%
O=C(c1cc(Cc2n[nH]c(=O)c3ccccc23)ccc1F)N1CCN(C(=O)C2CC2)CC1 -0.334%
Cc1cccc(C(=O)Nc2ccc(-c3nc4ncccc4o3)cc2C)c1 23.8%
CC(C)OCCCNC(=O)c1cn(C)c2ccc(S(=O)(=O)N3CCCCCC3)cc2c1=O -4.16%
CCc1ccc(C(=O)c2cnc3ccc(F)cc3c2S(=O)(=O)c2ccccc2)cc1 -10.4%
Cc1ccc(CNC(=O)c2ccc3c(c2)c(C)c(C)n3Cc2ccccc2)o1 -21.4%
COCCOC(=O)C1=C(C)NC2=C(C(=O)CC(c3ccccc3OC)C2)C1c1cccc(O)c1 (stereo unspecified) 8.03%
O=C(COc1ccccc1Cl)OCc1cc(=O)n2nc(C3CCCCC3)sc2n1 -5.21%
Cc1oc2ccc(O)c(CN3CCCC3)c2c1C(=O)Nc1ccccc1 -8.45%
CCCn1c(=O)c2sccc2n2c(CCCC(=O)NC3CCC(C)CC3)nnc12 (stereo unspecified) -12.4%
Clc1ccc2c(c1)C(N1CCNCC1)=Nc1ccccc1O2 0.0498%
Cc1ccc(CNC(=O)CN2C(=O)CCn3nc(-c4ccccc4)cc32)cc1 0.788%
COc1ccccc1NC(=O)C(C)Sc1nnc2ccc3ccccc3n12 (stereo unspecified) 1.03%
CCc1cccc2c(-c3ccccc3)nc(SCC(=O)Nc3ccccc3OC)nc12 -6.57%
Cc1ccc(-n2ncc(C(=O)NCc3cccs3)c2C2CCN(C(=O)OC(C)(C)C)CC2)cc1 13%
COc1ccc(OC)c(CCNC(=O)CCc2cn(Cc3cc(C)ccc3C)c3ccccc23)c1 -9.14%
CC1Cc2cc(S(=O)(=O)CCC(=O)NCc3ccc(Cl)cc3)ccc2N1C(=O)C1CC1 (stereo unspecified) 5.97%
COCCOC(=O)C1=C(C)NC(=O)NC1c1cn(-c2ccccc2)nc1-c1ccccc1 (stereo unspecified) 0.939%
CC(C)Nc1cc(C(F)(F)F)cc2nc(NC(=O)c3cccnc3)nn12 -0.628%
O=C(Cn1c(=O)c2cccn2c2ccc(F)cc21)N1CCN(c2ccccc2F)CC1 -9.58%
CN1CCN(C(CNC(=O)c2ccccc2F)c2ccc3c(c2)OCO3)CC1 (stereo unspecified) 2.11%
COc1ccc(C(=O)N(Cc2cc(OC)c(OC)c(OC)c2)c2ccccn2)cc1 9.24%
COc1ccc(Br)cc1CNC(=O)c1cnc2sc(N3CCCC3)nn2c1=O 9.08%
COc1cccc(C2NC(=O)c3n[nH]c(-c4cccs4)c32)c1 (stereo unspecified) -3.38%
Fc1ccc(-n2ncc3c(NCCCn4ccnc4)ncnc32)cc1 26.8%
COc1ccc(-c2cn3nc(N4CCCC(C(=O)Nc5cc(C)ccc5C)C4)sc3n2)cc1 (stereo unspecified) -4.38%
COc1cc(NC(=O)NCC2CCN(Cc3ccccc3Cl)CC2)cc(OC)c1OC -2.22%
Cc1cccc(-n2cc(-c3ccccc3)c3c(N4CCC(C)CC4)ncnc32)c1 4.63%
COc1ccc(NC(=O)c2sc3nc(-c4cc5ccc(OC)cc5oc4=O)[nH]c(=O)c3c2C)cc1 3.35%
CCCCN(CC)CCNC(=O)CCn1cnc2onc(-c3ccc(F)cc3)c2c1=O -21%
COc1ccc(-c2nc3sc(CCNC(=O)C(=O)Nc4ccccc4C#N)c(C)n3n2)cc1 4.04%
CCOc1ccc(CNC(=O)c2cc3ccccn3n2)cc1 -5.27%
COc1cccc(-n2c(=O)c3c(C)c(C)sc3n(Cc3ccccc3C#N)c2=O)c1 1.83%
Cc1cccc(-n2c(SCC(=O)Nc3ccc(C)c(C)c3)nc3n[nH]c(C)c3c2=N)c1 35.7%
CCc1cnc2c(c1SC(C(C)=O)C(=O)N(C)C)c(=O)n(C)c(=O)n2C (stereo unspecified) 4.47%
COc1ccc(CCNC(=O)c2ccc(Cn3c(SCc4ccccc4)nc4cccnc43)cc2)cc1 9.2%
O=C(CCn1c(=O)c2ccccc2n(CC(=O)Nc2ccc(F)cc2)c1=O)NCCc1ccccc1 11.3%
CCOc1ccccc1NC(=O)C1=C(C)Nc2ncnn2C1c1ccco1 (stereo unspecified) -9.68%

outcome, inactive:
COc1ccccc1CNC(=O)C1CCCN(C(=O)c2cnn(-c3ccc(F)cc3)c2-n2cccc2)C1 (stereo unspecified)
CCOc1ccc(OCC)c(NS(=O)(=O)c2cc(-c3cnc(C)o3)ccc2OC)c1
CCn1c2ccccc2c2cc(NC(=O)COc3ccc(C)cc3C)ccc21
CCc1cccc(C)c1NC(=O)Cn1cnc2c1c(=O)n(C)c(=O)n2C
Cc1ccccc1-n1nc(CO)c(C(=O)NCc2cccnc2)n1
CCc1nn2c(=O)cc(COC(=O)c3cccc(NC(=O)c4cccs4)c3)nc2s1
CCOC(=O)c1c(-c2ccccc2)csc1NC(=O)c1cc(=O)c2ccc(C)cc2o1
Cc1nc2nncn2c(Nc2ccccc2)c1C
Cc1ccc(NC(=O)C2CCN(S(=O)(=O)c3ccc4[nH]c5c(c4c3)CCCCC5)CC2)cc1
COc1ccc(N2CCN(C(=O)CCn3c(=O)[nH]c4cc(OC)c(OC)cc4c3=O)CC2)cc1
CCCCOc1ccc(C(=O)NCCc2csc(-c3cccc(F)c3)n2)cc1
Cc1ccc(Cl)cc1NS(=O)(=O)c1ccc2c(c1)NC(=O)CCS2
O=C(Cn1c(=O)nc(-c2ccccc2)c2ccccc21)NCCc1ccc(Cl)cc1
Cc1cc2[nH]c(=O)c(=O)[nH]c2cc1S(=O)(=O)N1CCN(c2cccc(C(F)(F)F)c2)CC1
CCOC(=O)c1ccccc1NC(=O)c1c(C)oc2ncnc(N3CCOCC3)c12
COCCCNC(=O)c1ccc(Cn2c(=O)c3ccccc3n(Cc3ccc(Cl)cc3)c2=O)cc1
COc1cc(NC(=O)c2nn(C)c3c2COc2ccccc2-3)cc(OC)c1OC
